# Laboratory results published in publication PMC4336329 (PLoS ONE, 2015).
# About 2,200 (0.71%) of roughly 310,000 compounds showed an effect of 50% or more. The effect is printed as a negative number. The list shows a part of the results.
# Target: human ether-à-go-go-related gene (hERG) potassium channel (human, UniProt Q12809)
# Experiment: primary screen, population patch clamp on CHO cells stably expressing hERG
# Chain of human ether-à-go-go-related gene (hERG) potassium channel (Q12809 whole entry, looked up): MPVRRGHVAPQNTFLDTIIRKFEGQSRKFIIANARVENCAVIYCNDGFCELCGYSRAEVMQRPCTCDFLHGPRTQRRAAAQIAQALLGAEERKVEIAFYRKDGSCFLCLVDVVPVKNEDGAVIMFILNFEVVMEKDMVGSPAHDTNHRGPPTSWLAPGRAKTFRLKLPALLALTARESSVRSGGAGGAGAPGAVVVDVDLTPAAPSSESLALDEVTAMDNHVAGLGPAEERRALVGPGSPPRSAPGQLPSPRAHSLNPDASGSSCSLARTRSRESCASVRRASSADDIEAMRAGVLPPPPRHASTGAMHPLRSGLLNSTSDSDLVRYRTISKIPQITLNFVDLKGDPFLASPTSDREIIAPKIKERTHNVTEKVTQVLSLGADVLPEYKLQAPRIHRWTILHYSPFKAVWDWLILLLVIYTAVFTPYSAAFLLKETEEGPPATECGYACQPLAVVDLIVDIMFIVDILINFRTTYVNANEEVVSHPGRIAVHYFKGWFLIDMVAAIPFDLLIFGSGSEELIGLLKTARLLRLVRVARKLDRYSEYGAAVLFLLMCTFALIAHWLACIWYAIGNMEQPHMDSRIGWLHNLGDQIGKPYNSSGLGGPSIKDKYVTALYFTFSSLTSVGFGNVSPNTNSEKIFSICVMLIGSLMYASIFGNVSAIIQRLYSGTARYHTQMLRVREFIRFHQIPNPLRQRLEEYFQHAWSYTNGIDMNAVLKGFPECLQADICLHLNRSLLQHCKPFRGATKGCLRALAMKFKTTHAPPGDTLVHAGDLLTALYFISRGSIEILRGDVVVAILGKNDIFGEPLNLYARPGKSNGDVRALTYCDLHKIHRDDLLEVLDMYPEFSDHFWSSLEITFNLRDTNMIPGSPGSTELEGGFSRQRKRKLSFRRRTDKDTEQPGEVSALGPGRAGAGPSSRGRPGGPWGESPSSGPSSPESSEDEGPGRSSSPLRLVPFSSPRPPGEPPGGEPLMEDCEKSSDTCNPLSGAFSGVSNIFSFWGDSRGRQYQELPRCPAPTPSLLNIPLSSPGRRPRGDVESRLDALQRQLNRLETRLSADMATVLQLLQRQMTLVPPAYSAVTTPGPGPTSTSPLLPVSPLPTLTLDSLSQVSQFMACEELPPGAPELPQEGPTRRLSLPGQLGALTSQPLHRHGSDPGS
row,Structure (SMILES),"hERG current change (%, negative = inhibition) at 1uM [%]"
1,Cc1ccc(-c2nc(NC(=O)c3ccc(S(=O)(=O)N(CCC#N)CCC#N)cc3)sc2-c2ccccc2)cc1,6.48
2,Cn1ncc2c(NNC(=O)C3CCCCC3)ncnc21,16.3
3,CCCN1CCc2c(sc(NC(=O)c3ccc(S(=O)(=O)N(C)c4ccccc4)cc3)c2C(=O)NC)C1,-11.9
4,Cn1cc(S(=O)(=O)N2CCCC(C(=O)O)C2)cn1 (stereo not shown),11.4
5,Cc1ccc2nc(N(CCCN(C)C)C(=O)CN3C(=O)c4ccccc4C3=O)sc2c1.Cl,-1.44
6,Cc1ncoc1C(=O)Nc1ccccc1C(N)=O,6.87
7,C/C(=N\NC(=S)NC1CCCCC1)c1ccc(OC(F)F)cc1OC(F)F,2.56
8,O=C(C1=C(O)C(=O)N(c2ncccn2)C1c1ccc(Cl)cc1)c1ccco1 (stereo not shown),14.8
9,O=C(Nc1ccccc1)Nc1ccc2snnc2c1,14.6
10,O=C(O)c1ccc(-n2c(/C=C/c3ccccc3)nc3ccccc3c2=O)cc1,2.81
11,COc1ccc(N2CCN(C(=O)CN(C)S(=O)(=O)c3cnc[nH]3)CC2)cc1,13.6
12,CN(C(=O)c1ccc2c(Cl)c3c(nc2c1)CCC3)c1ccccc1,23.1
13,COc1ccc(OC)c(-c2nnc(SCC(=O)N3CCOCC3)o2)c1,13.8
14,CN(C(=O)CCN1CCCO1)C1CCCN(Cc2ccccc2F)C1 (stereo not shown),24.2
15,O=C(NC1CCOCC1)C1CCC(=O)N(CCc2cccc(F)c2)C1 (stereo not shown),5.26
16,CCOC(=O)CCNC(=O)N1CCCC(C(=O)c2ccc3c(c2)OCO3)C1 (stereo not shown),0.66
17,CCc1ccc(S(=O)(=O)N2CCN(c3ncccn3)CC2)cc1,16.2
18,CCOC(=O)c1oc2ccc(CNC(C)(C)C)c(Cl)c2c1C.O=C(O)C(=O)O,8.1
19,O=C(Cc1c(F)cccc1Cl)Nc1ccncc1,0.395
20,COc1ccc(C(=O)NCC23C=CC(O2)C2C(=O)N(Cc4ccccc4)C(=O)C23)cc1 (stereo not shown),-11.2
21,Cc1ccc(S(=O)(=O)Nc2ccccc2C(=O)NCC2CCCO2)cc1 (stereo not shown),7.49
22,O=C(Nc1ccc(S(=O)(=O)N2CCCC2)cc1)C1CCCCC1,8.94
23,CN(C)CCn1c(=O)n(C2CCCCC2)c(=O)c2c3c(sc21)CCCCC3,-0.636
24,COC(=O)Cn1c(=O)c2c(nc(Br)n2Cc2ccccc2Cl)n(C)c1=O,2.48
25,Cc1ccc(SCC(=O)OCC(=O)N(C)CC(=O)Nc2ccc(F)cc2)cc1C,3.82
26,Cc1cc(OCC(=O)Nc2cccc(S(=O)(=O)N3CCCCC3)c2)ccc1Cl,9.7
27,CN1C(=S)SC2CS(=O)(=O)CC21C (stereo not shown),6.95
28,Cc1cc2oc(=O)cc(Cn3ccnc3)c2cc1Cl,12.3

row,Structure (SMILES),"hERG current change (%, negative = inhibition) at 1uM [%]"
1,CCCOc1ccc2oc(=O)c3c(c2c1)CCCN3C(=O)CN1CCN(c2ncccn2)CC1,-18.7
2,Cc1ccc(C(=O)Nc2ccc(S(=O)(=O)N3CCc4ccccc4C3)cc2)o1,1.08
3,COc1cc(OC)cc(-c2cc3nc(C4CCN(C(=O)OC(C)(C)C)CC4)cc(=O)n3[nH]2)c1,4.02
4,O=C(CSc1nnc(-c2ccccc2)c2ccccc12)NCCN1C(=O)CSC1=O,-2.85
5,O=C(OCC(=O)N1CCN(C(=O)c2ccco2)CC1)c1cc(-c2cccc(Br)c2)nc2ccccc12,-14.2
6,CN(CC(=O)Nc1ccc(Cl)c(Cl)c1)C(=O)/C=C/c1ccc(F)cc1,5.65
7,Cc1ccc(C(=O)c2cc([N+](=O)[O-])ccc2N2CCOCC2)cc1C,14.4
8,C=CCN1C(=O)C(CC(=O)O)SC1=Nc1ccc(C)cc1 (stereo not shown),13.3
9,CCC(=O)c1ccc(OC)c(OC)c1O,6.78
10,O=C1[C@H]2[C@@H](c3ccc(F)cc3)N3C(=O)N(c4ccc(C(F)(F)F)cc4)C(=O)[C@@]3(Cc3ccccc3)[C@H]2C(=O)N1C1CCCCC1,12.7
11,Cc1ccc2nc(-c3ccncc3)cc(C(=O)Nc3ccc4c(c3)OCCO4)c2c1,7.75
12,COc1ccc(-c2cc(C(=O)N3CCCCCC3)no2)cc1OC,17.8
13,COc1ccc(O)c(C(=O)c2cc(C#N)c(=O)n(Cc3ccccc3)c2)c1,8.35
14,C#CC1(NC(=O)NC(C)C)CCCCC1,6.28
15,CC(=O)c1nn(-c2cccc(C(F)(F)F)c2)c(=O)[nH]c1=O,10.5
16,COc1ccc([N+](=O)[O-])cc1NC(=O)Nc1ccc(OC)c(OC)c1,5.9
17,O=C(CN1C(=O)c2ccccc2C1=O)NCCc1c[nH]c2ccccc12,2.22
18,CCOc1ccccc1C(=O)NCC(=O)O,20
19,CC(C)NC(=O)C1CCCN(S(=O)(=O)c2ccc(-n3cnnn3)cc2)C1 (stereo not shown),8.86
20,CCc1cc(C(=O)OC)c(NC(=O)CN2CCN(C(=O)c3ccco3)CC2)s1,-12.5
21,CCCCn1c(O)c(C(=O)/C=C/c2c[nH]c3ccccc23)c(=O)[nH]c1=O,4.16
22,O=C(COc1ccc(Br)cc1)Nc1ccccc1C(=O)NC1CC1,10
23,O=C(c1ccc([N+](=O)[O-])o1)N(Cc1nnc(-c2ccccc2Cl)o1)C1CC1,3.35
24,O=C(/C=C1\SC(=O)NC1=O)Nc1ccc(C(=O)O)cc1,11.9
25,Cc1nn(-c2ccccc2)c2nc(N)c(C(N)=O)cc12,12.3
26,O=C1c2ccccc2CCC12N=NCC2c1ccccc1 (stereo not shown),-8.49
27,CC(C)Oc1nc(-c2ccccc2O)nc2ccccc12,8.54
